Test results: PubChem BioAssay AID493208 (National Center for Advancing Translational Sciences (NCATS), 2011)
About 340 (0.77%) of roughly 44,000 compounds were called active. Inconclusive results (about 5%) are left out. The call rests on the fitted dose curve; in most records, active means well fitted inhibition curve with a large enough effect; inconclusive means small, poorly fitted or top-dose-only effect; inactive means flat fitted curve, though single readings scatter. This is one part of the list.

assay: Acumen qHTS Assay for Inhibitors of the mTORC1 Signaling Pathway in MEF (Tsc2-/-, p53-/-) Cells: Sytravon; details: phospho-rpS6 immunofluorescence/PI, 24 h; series mostly up to 38.3 µM; activity change, negative = inhibition: at the top concentration;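 further: plate controls were DMSO for no effect and rapamycin for full effect; nearly all actives have a fitted effect of over 50% in size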
In short: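 Plate MEFs (Tsc2-/-, p53-/-, empty vector) in DMEM/10% FBS; after 24 h add compound, incubate 24 h at 37 degree Celsius; fix in PFA/TX-100, block, stain phospho-rpS6 and 10 uM PI; scan at 488 nm; report % positive cells.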

Activity change, negative = inhibition, inactive:
COc1ccc(C2c3c(n(C)c4ccccc34)C(=O)N2CC(=O)Nc2cccc(Cl)c2)cc1 (configuration not stated) -1.02%
CCOC(=O)c1c(NC(=O)CSc2cn(CCNC(=O)c3ccc(OC)cc3)c3ccccc23)sc2c1CCCC2 -3.31%
CCc1ccc2oc(C(=O)Nc3nc(-c4ccc(F)cc4)ns3)c(C)c2c1 2.33%
CCOC(=O)c1cccc(NC(=O)CC2C(=O)N(c3ccccc3)C(=O)N2Cc2ccco2)c1 (configuration not stated) 0.647%
COc1ccc(-c2cc(C(F)(F)F)n3nc(C(=O)OC(C)C)cc3n2)cc1 -1.3%
Cc1cc2c(n1-c1ccc(C(=O)NCCc3ccc(Cl)cc3)cc1)CCC(C)C2 (configuration not stated) 0.912%
Cc1c(C2=CCN(S(=O)(=O)c3ccc(Cl)cc3)CC2)c2ccccc2n1CC(=O)N1CCCC1 5.17%
CCOc1ccccc1CNC(=O)C1CCN(c2nnc(C)c3c(C)n(-c4ccc(C)cc4)nc23)CC1 -12.7%
O=C(CC1(O)C(=O)N(CCc2ccccc2)c2ccc(Br)cc21)c1ccccc1 (configuration not stated) -2.55%
COc1ccc(N(Cc2nnc3n2CCCCC3)C(=O)Nc2ccc(Cl)cc2)cc1Cl -3.61%
Cc1cccc(OCC(=O)Nc2ccc(OCc3cc(=O)n4cc(C)ccc4n3)cc2)c1 -2.15%
Cc1c(Cl)cccc1NC(=O)C(C)n1nc(C)c2c(C)n(-c3ccccc3)nc2c1=O (configuration not stated) -5.16%
CC(=O)Nc1ccc(Nc2nc3ccc(Cl)cc3n3cnnc23)cc1 0.685%
CNC(=O)c1ccc(-c2nc(CN3CCc4ccccc43)c(C)o2)cc1 -12.8%
O=C1CC(c2nnc(Cc3ccc(F)cc3)o2)CN1c1ccccc1 (configuration not stated) 0.236%
Cc1cccc(NC(=O)CSc2cn(CC(=O)N3CCC(C)CC3)c3ccccc23)c1C -10.8%
Fc1ccccc1-n1ncc2c1ncn1nc(COc3ccc(Cl)cc3)nc21 1.96%
COc1ccccc1CNC(=O)c1cc(S(=O)(=O)N2CCCCCC2)cn1C -23.1%
CC(=O)c1cccc(NC(=O)Cn2c(-c3cncs3)nc3ccccc32)c1 -3.54%
Cc1cccc(N2CCN(S(=O)(=O)c3nnc(NC(=O)c4ccc(Cl)cc4)s3)CC2)c1 2.21%
COc1ccc(OC)c(NC(=O)c2ccc3nc(C(C)C)oc3c2)c1 5.07%
CC(C)(C)C(=O)NC1CC(=O)N(c2ccc3c(c2)OCCO3)C1 (configuration not stated) -0.0925%
CCc1cccc(NC(=O)c2cc(S(=O)(=O)N3CCCCCC3)cn2C)c1 3.83%
COc1ccccc1N1CCN(C(=O)c2cc3c(s2)-c2ccccc2OC3)CC1 -3.91%
CCc1ccccc1N1CC(c2nc3ccccc3n2CCCCOc2ccccc2OC)CC1=O (configuration not stated) -3.05%
Cc1noc(Cn2c(=O)c3cc4c(cc3n(CC(=O)Nc3ccc(C(C)C)cc3)c2=O)OCO4)n1 -7.13%
CC(C)NC(=O)Cc1csc2nc(-c3ccccc3)cn12 0.426%
COc1cccc(-c2cc(C(F)(F)F)n3nc(-c4ccc(C)cc4)cc3n2)c1 -8.2%
CNS(=O)(=O)c1ccc(NC(=O)c2nc3nc(C)cc(C(F)F)n3n2)cc1 6.32%
CCN(c1ccccc1)S(=O)(=O)c1ccc(NC(=O)c2cc(=O)c3c(C)cc(C)cc3o2)cc1 -0.676%
O=C1CCc2cc(S(=O)(=O)NC(C(=O)Nc3ccc(F)cc3)c3ccccc3)ccc2N1 (configuration not stated) 3.35%
Cc1nc2nc(CNC(=O)c3cccc(F)c3)nn2c(C)c1CCC(=O)Nc1ccc(F)cc1 -2.75%
CCOc1ccc(NS(=O)(=O)c2ccc3[nH]cc(C(=O)N4CCCC4)c(=O)c3c2)cc1 1.6%
COc1cc2c(cc1OC)C(COc1ccc(F)cc1)N(C(=O)C(C)C)CC2 (configuration not stated) 4.16%
O=c1n(Cc2ccccc2)nc2n1-c1ccccc1OC2 4.47%
CC(C)c1cnc2c(c1SCc1ccc([N+](=O)[O-])cc1)c(=O)n(C)c(=O)n2C 0%
COc1ccc(S(=O)(=O)N(Cc2nc(-c3ccccc3)no2)C2CCCCC2)cc1 -21.3%
Fc1ccc(Nc2nc(SCc3ccc(Cl)cc3)nc3ccccc23)cc1 -6.44%
CNC(=O)C1CCC(Cn2c(=O)c3sccc3n(CC(=O)N3CCCCC3C)c2=O)CC1 (configuration not stated) -0.233%
Cc1cccc(-c2noc(-c3cccnc3NCc3ccccc3Cl)n2)c1 0.845%
COc1cc(C2CC(=O)N(c3ccc(C)c(Cl)c3)C3=C2C(=O)OC3)cc(OC)c1OC (configuration not stated) -0.698%
O=C(CCS(=O)(=O)c1ccc(Br)s1)Nc1c(F)cccc1F -1.53%
COc1ccc(NC(=O)CCc2nc3cccnc3n2Cc2cccs2)c(OC)c1 -1.18%
CCOC(=O)c1ccc(NC(=O)Nc2cccc(OCc3cc(=O)n4ccc(C)cc4n3)c2)cc1 8.9%
CCCCOc1ccc(NC(=O)CSc2ccc(C(=O)O)cn2)cc1 -4.1%
Cc1cc(N2CCN(c3ccccc3F)CC2)n2cnnc2n1 0.8%
CCCSc1ncc(Cl)c(C(=O)Nc2ccc(OC)cc2OC)n1 -2.64%
COc1cccc(CNC(=O)CCn2ccc3cc(S(=O)(=O)N4CCCC4)ccc32)c1 -0.0429%
CC(C)CCSc1nc2c(c(=O)n(C)c(=O)n2C)n1Cc1ccccc1Cl 1.73%
COc1ccc(NC(=O)Nc2nnc(SCC(=O)Nc3cccc(C)c3C)s2)cc1 -0.511%
CCn1cnc2c(=O)oc3ccc(S(=O)(=O)N4CCN(c5cc(C)ccc5C)CC4)cc3c21 2.4%
COc1ccc(C2=C(C)C(=O)N(Cc3ccc(C(=O)NCc4ccccc4C)cc3)S2(=O)=O)cc1 -11.2%
O=S(=O)(NCCc1ccc(Cl)cc1)c1ccc(N2CCCCS2(=O)=O)cc1 10.7%
Cc1ccc(C2C=C(c3ccc(Cl)cc3)Nc3nc(NC(=O)CCC(=O)O)nn32)cc1 (configuration not stated) -11.7%
CCOc1ccc(NC(=O)CCn2c(-c3ccc(F)cc3)cc(C(C)=O)c2C)cc1 0.877%
O=C(CSc1nnc(-c2ccccc2)c(-c2ccccc2)n1)Nc1ccccc1Cl 3.52%
CCCOc1ccc(C(=O)Nc2cc3nn(-c4ccc(CC)cc4)nc3cc2C)cc1 -1.03%
COc1ccccc1OCCCn1c(-c2ccc(Cl)cc2)nc2ccccc2c1=O 6.95%
CCC(C)Cn1c(COc2ccc(OC)cc2)nc2ccccc21 (configuration not stated) -6.14%
CCOC(=O)Cc1c(C)nc2c(-c3ccc(OC)c(OC)c3)c(C)nn2c1C 7.41%
COc1ccc(-c2cc(C(=O)Nc3ccc(C#N)cc3)no2)cc1 -12.7%
CCOC(=O)CC(NC(=O)c1cc2cc(OC)ccc2oc1=O)c1ccc(OC)cc1 (configuration not stated) 2.33%
